About 540 (0.36%) of roughly 150,000 compounds showed an effect of 50% or more. This is one part of the list.
Each compound was assayed on Plasmodium falciparum (assay: Primary screen in NF54 nanoGlo assay, in single point, at 2uM, 72h; a lower Z score goes with more inhibition). Conditions: timepoint 72 hour.
Type: functional, Erythrocyte
In the case of `CCN1CCCC1CNC(=O)C(C)c1ccccc1` (stereo not given), the “% Inhibition” value is reported as 1% and the Z score is reported as -0.2. `COCCCNC(=O)[C@@H]1CC2(CCN(C(=O)NCCc3ccccc3)CC2)C(=O)N1C` was tested, and the “% Inhibition” value was -14% and the Z score was 1.74. With `CCC[C@H]1CN(C(=O)CCC(F)(F)F)C[C@@H]1N(C)C` the “% Inhibition” value was -2% and the Z score was 0.28. For `N#Cc1cccc(CN2CCCCCCCC2=O)c1`, the “% Inhibition” value was -13% and the Z score was 1.28. `COc1ccc(C)nc1NCc1csc(N(C(C)=O)C2CC2)n1` was tested, and the “% Inhibition” value was -9% and the Z score was 0.84. In the case of `COc1nc(C)c(C(=O)N2CCn3nc(CO)cc3C2)s1`, the “% Inhibition” value is reported as -14% and the Z score is reported as 1.51. For `CN(C(=O)Cn1cccc(S(=O)(=O)N2CCCC2)c1=O)C1CCCCC1`, the “% Inhibition” value was -8% and the Z score was 1.13. For `Cc1cc(-c2ccccc2)n([C@H]2CCC[C@@H]2O)n1`, the “% Inhibition” value was -17% and the Z score was 1.51. `CNc1nc(NC(C2CC2)C2CC2)ncc1F` was tested, and the “% Inhibition” value was -5% and the Z score was 0.52. With `NC(=O)CN1CCN(Cc2ncc(Cl)cc2Br)CC1=O` the “% Inhibition” value was -3% and the Z score was 0.53. With `Cc1ccc(C(C)(C)C(=O)N2C[C@@H]3CS(=O)(=O)C[C@@H]3C2)cc1` the “% Inhibition” value was 2% and the Z score was -0.33. For `CCc1nc(CN2CC[C@H](O)CC(C)(C)C2)no1`, the “% Inhibition” value was -7% and the Z score was 0.94. With `Cc1ccc(C(=O)NCCCc2ccccc2)o1` the “% Inhibition” value was -11% and the Z score was 1.35. With `CN1CCN2C[C@@H](NS(=O)(=O)c3cccc(C(=O)NC4CC4)c3)C[C@H]2C1` the “% Inhibition” value was 2% and the Z score was -0.3. For `CN1C(=O)[C@@H]2CC[C@H]1CN(C(=O)Nc1ccccc1OCc1ccccc1)C2`, the “% Inhibition” value was -16% and the Z score was 1.59. `O=C(CC(=O)NCC(F)(F)F)NC[C@@H](c1cccc(Cl)c1)N1CCCC1` was tested, and the “% Inhibition” value was 0% and the Z score was 0.05. With `CC(=O)Nc1cc(Cl)c(O)c(Cl)c1Cl` the “% Inhibition” value was -10% and the Z score was 1.68. In the case of `COc1cc(CNCc2ccccn2)cc(Br)c1OCc1cccnc1`, the “% Inhibition” value is reported as -35% and the Z score is reported as 4.07. `CC[C@H]1CCCN(S(=O)(=O)c2ccc3c(c2)CCC(=O)N3)C1` was tested, and the “% Inhibition” value was -9% and the Z score was 1.53. For `COc1ccc(-n2nc(C)c3c(C(=O)N[C@@H](C)c4cccc(OC)c4)cc(C)nc32)cc1`, the “% Inhibition” value was 0% and the Z score was 0.07. `Cc1conc1CNc1ccc(Br)c(C(F)(F)F)n1` was tested, and the “% Inhibition” value was -8% and the Z score was 1.58. For `O=C(Nc1cccnn1)N1CCC(Cc2cc(F)cc(F)c2)CC1`, the “% Inhibition” value was -3% and the Z score was 0.48. `CC(C)n1c(N2CCCN(C(=O)CC3CCCCC3)CC2)cc(=O)n(C(C)C)c1=O` was tested, and the “% Inhibition” value was -3% and the Z score was 0.59. `Cc1cn2cc(Cc3nc(-c4cnn(CCF)c4)no3)nc2s1` was tested, and the “% Inhibition” value was -5% and the Z score was 0.81. With `NC(=O)c1ccc(O[C@H]2CCOC2)nc1` the “% Inhibition” value was 1% and the Z score was -0.15. `O=C(CNC(=O)NC1CC1)NCCc1cc(F)cc2c1OCOC2` was tested, and the “% Inhibition” value was -2% and the Z score was 0.2. With `Cc1ccnc(OCC(=O)N2CCN(c3ccc(N4CCN(C)CC4)nn3)CC2)n1` the “% Inhibition” value was 3% and the Z score was -0.58. With `Cc1ccc2cc1Oc1cccc(c1)CO[C@H]1CN(C(=O)c3cccc(CCC(C)(C)O)c3)C[C@@H]1NC(=O)CN(C)C2=O` the “% Inhibition” value was -18% and the Z score was 2.25. For `CC(C)(C)OC(=O)N1CCN(Cc2nnnn2C2CC2)C2(CCCCC2)C1`, the “% Inhibition” value was -9% and the Z score was 1.46. In the case of `COCc1noc(CN2CC[C@@]3(CCCOC3)C2)n1`, the “% Inhibition” value is reported as -10% and the Z score is reported as 1.22. For `CC(=O)c1ccc(CNC(=O)[C@@H](C)Cc2c(C)n[nH]c2C)nc1C`, the “% Inhibition” value was -1% and the Z score was 0.12. With `Cc1cc(C)n2cc(CN3CCN(Cc4cc(C)on4)CC3)nc2n1` the “% Inhibition” value was -12% and the Z score was 1.9. With `Cc1cc(C)cc(N2CCN(C(=O)NC[C@@]3(C)CCCO3)CC2=O)c1` the “% Inhibition” value was -3% and the Z score was 0.64. In the case of `Cc1c(N2C(=O)CN(CCc3ccccc3)C2=O)cccc1C(F)(F)F`, the “% Inhibition” value is reported as 12% and the Z score is reported as -1.12. For `C[C@H](NCC(=O)Nc1ccncc1)c1cccc(Br)c1`, the “% Inhibition” value was 6% and the Z score was -0.68. For `Cc1noc(C)c1C(=O)O[C@@H](C)C(=O)Nc1ccc2c(c1)OCCO2`, the “% Inhibition” value was -14% and the Z score was 1.31. `FC(F)(F)CNC1CC(Nc2cnccn2)C1` (stereo not given) was tested, and the “% Inhibition” value was -3% and the Z score was 0.48. For `O=C(COc1ccccc1F)OCCN1CCCC1`, the “% Inhibition” value was -7% and the Z score was 1.01. `OCCN1CCN(C2CCCCCC2)CC1` was tested, and the “% Inhibition” value was -9% and the Z score was 1.78. For `CC(C)[C@H](NCc1cccc(C#N)c1)[C@H](O)C(F)(F)F`, the “% Inhibition” value was -7% and the Z score was 1.35. In the case of `COc1cccc(C)c1C(=O)N1CCC[C@H]1C(=O)N1CCCCC1`, the “% Inhibition” value is reported as -9% and the Z score is reported as 1.15. For `CS(=O)(=O)N1CCN(C(=O)c2cc(-c3cccnc3)nc3ccccc23)CC1`, the “% Inhibition” value was 1% and the Z score was -0.11. For `COc1ccc2cc1Oc1cccc(c1)CO[C@H]1CN(C(=O)c3cc(C)nc(C)c3)C[C@@H]1NC(=O)CN(C)C2`, the “% Inhibition” value was -4% and the Z score was 0.89. In the case of `CC(C)c1noc([C@H](C)N2CCCc3c(NC(=O)c4ccc(F)cc4)cccc32)n1`, the “% Inhibition” value is reported as -13% and the Z score is reported as 1.63. `O=C(Nc1nc(-c2ccc(Cl)cc2)cs1)[C@@H]1CCCO1` was tested, and the “% Inhibition” value was -8% and the Z score was 1.15. With `Cc1nc(Oc2ccc(-c3ccccc3)cc2Cl)c2cnn(C)c2n1` the “% Inhibition” value was -6% and the Z score was 0.79. `O=C(N[C@@H](Cc1ccccc1)c1nnc(N2CCCCCC2)o1)c1cccs1` was tested, and the “% Inhibition” value was -16% and the Z score was 2.63. `COc1ccc(CNC(=O)c2noc3c2CCc2ccccc2-3)cc1` was tested, and the “% Inhibition” value was 2% and the Z score was -0.19. In the case of `CC1(C)CN(C(=O)c2ccc(CNS(C)(=O)=O)o2)C1(C)C`, the “% Inhibition” value is reported as 2% and the Z score is reported as -0.26. In the case of `COCC1(NC(=O)c2ccc3nc(-c4ccc(F)cc4)cn3c2)CCCC1`, the “% Inhibition” value is reported as 1% and the Z score is reported as -0.11. With `CCc1nc(C(C)C)ccc1C(=O)N(C)Cc1nncn1C` the “% Inhibition” value was -4% and the Z score was 0.61. For `CN(CCO)[C@H]1CN(C(=O)c2ccccc2-c2ccccc2)C[C@@H]1O`, the “% Inhibition” value was 7% and the Z score was -1.38. For `Cc1cccc(N2CCN(c3nc(-c4ccc(Oc5ccccc5)cc4)nc4ccccc34)C[C@@H]2C)c1`, the “% Inhibition” value was 6% and the Z score was -0.89. With `O=C(Nc1ccccc1)C1CCN(C(=O)c2nc(N3CCOCC3)ncc2Cl)CC1` the “% Inhibition” value was -12% and the Z score was 2.17. `O=C(NS(=O)(=O)c1ccc2nc[nH]c(=O)c2c1)C1CC2CCC1C2` (stereo not given) was tested, and the “% Inhibition” value was 9% and the Z score was -1.39. `COCCn1nnc2c1CCN(C(=O)N[C@H]1CCc3ccccc31)C2` was tested, and the “% Inhibition” value was -5% and the Z score was 0.93. In the case of `CC1(C)C(O)CC1NC(=O)C1CCC(=O)CC1` (stereo not given), the “% Inhibition” value is reported as -7% and the Z score is reported as 1.06. `COCCc1noc([C@H](C)NC(=O)Cc2cccc(O)c2)n1` was tested, and the “% Inhibition” value was -12% and the Z score was 1.52. `c1ccc2[nH]c(Nc3nc4ccccc4s3)nc2c1` was tested, and the “% Inhibition” value was 42% and the Z score was -2.98. For `O=C(C1COc2ccccc2O1)N1CCCC1c1nc2ccccc2s1` (stereo not given), the “% Inhibition” value was -14% and the Z score was 1.77. With `CC(C)n1cnc(C(=O)NCC2CC(O)CN2Cc2ccccc2)c1` (stereo not given) the “% Inhibition” value was -2% and the Z score was 0.42. `COCc1nc(CNC(C)=O)n(-c2ccncc2)n1` was tested, and the “% Inhibition” value was 9% and the Z score was -1.19. With `CN(C)C(=O)c1cc(OCc2ccccc2)no1` the “% Inhibition” value was 6% and the Z score was -0.91. `Cc1[nH]ccc1C(=O)N1CCC2CCC(C1)N2C(C)C` (stereo not given) was tested, and the “% Inhibition” value was -1% and the Z score was 0.1. In the case of `CC1CCCCC1NC(=O)CC1CCS(=O)(=O)C1` (stereo not given), the “% Inhibition” value is reported as -6% and the Z score is reported as 0.76. In the case of `COCC(=O)N1CCCc2ccc(NC(=O)NCc3ccc(OC)c(OC)c3)cc21`, the “% Inhibition” value is reported as -2% and the Z score is reported as 0.2. `Cc1cn(C(C)(C)C(=O)Nc2ccn(CC(=O)O)n2)nc1C(F)(F)F` was tested, and the “% Inhibition” value was -5% and the Z score was 0.77. In the case of `CCN1C(=O)Cc2c(C)nc(-c3ccc(OC)cc3)nc21`, the “% Inhibition” value is reported as -3% and the Z score is reported as 0.39. With `CCOC(=O)c1nnn(CC(N)=O)c1-c1ccc2c(c1)OCO2` the “% Inhibition” value was 10% and the Z score was -1.31. In the case of `CCCOC1(CNC(=O)c2cccc3nn[nH]c23)CCCCC1`, the “% Inhibition” value is reported as -13% and the Z score is reported as 1.83. For `CC1CCN(Cc2ccc(-c3ncnn3-c3cccnc3)o2)CC1`, the “% Inhibition” value was -12% and the Z score was 1.59. In the case of `O=C(Cc1n[nH]c2c1CCCC2)N[C@H]1CCCOc2c(Cl)cccc21`, the “% Inhibition” value is reported as -6% and the Z score is reported as 1.13. In the case of `NC(=O)c1ccc(CN2CCN(C(=O)C3=CCCC3)CC2)cc1`, the “% Inhibition” value is reported as -6% and the Z score is reported as 0.74. For `O=S(=O)(Nc1cc(-c2c(O)ccc3ccccc23)c(O)c2ccccc12)c1ccccc1`, the “% Inhibition” value was -15% and the Z score was 2.52. In the case of `CC1(C)Cc2cccc(OCCNC(=O)c3nc(N4CCOCC4)ncc3Cl)c2O1`, the “% Inhibition” value is reported as -9% and the Z score is reported as 1.47. With `COCCNC(=O)Nc1ccc(N2CC(OC)C2)cc1` the “% Inhibition” value was -17% and the Z score was 2.66. For `O=S1(=O)CC(CS(=O)(=O)N[C@@H]2COc3ccccc3C2)C1`, the “% Inhibition” value was -3% and the Z score was 0.61. `Cc1onc(C(=O)N2CC3(C2)C[C@](C)(O)CO3)c1CN1CCOCC1` was tested, and the “% Inhibition” value was 2% and the Z score was -0.35. With `CC(C)c1cccc(C(=O)N2CCC[C@H](C)CC2)n1` the “% Inhibition” value was -5% and the Z score was 0.98. `Cc1cccnc1C[C@H](C)NC(=O)c1nc(C(C)C)cs1` was tested, and the “% Inhibition” value was -2% and the Z score was 0.37. `Cc1ccnn1CC(=O)N1CC[C@H](c2ccc3c(c2)OCO3)[C@@H](O)C1` was tested, and the “% Inhibition” value was -6% and the Z score was 1.12. For `Cc1cccnc1-c1noc(C2(O)CCCCC2)n1`, the “% Inhibition” value was -8% and the Z score was 0.79. For `CN(Cc1nnc[nH]1)S(=O)(=O)N1CCC2(CCCCC2)CC1`, the “% Inhibition” value was -8% and the Z score was 1.46. For `Cc1nn(C)c(C)c1NC(=O)c1cc2c(C)nn(-c3ccccc3)c2s1`, the “% Inhibition” value was -8% and the Z score was 1.72. With `O=C(c1ccnc(OCC2CC2)c1)N1CCCC1` the “% Inhibition” value was -12% and the Z score was 2.33.
